Data published in patent US20260055188A1 (SHENGHE CHINA BIOPHARMACEUTICAL, published 2026).

Molecular target: T1, Human-TNFR2-His (manufacturer: SINO, CAT: 10417-H08H) (human, UniProt P20333 23-257)
T1 construct: Bought protein; also called human TNFR2 protein; TNFR2 protein; not shown: His tag
T1 sequence (looked up): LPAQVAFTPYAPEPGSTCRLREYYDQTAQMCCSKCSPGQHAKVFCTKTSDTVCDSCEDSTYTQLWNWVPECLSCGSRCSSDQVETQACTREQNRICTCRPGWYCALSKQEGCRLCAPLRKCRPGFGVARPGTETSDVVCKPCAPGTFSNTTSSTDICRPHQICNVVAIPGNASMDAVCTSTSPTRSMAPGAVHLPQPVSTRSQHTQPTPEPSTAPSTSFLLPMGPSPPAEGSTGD
Test: flow cytometry, bridging: CHOK1-18.2 cells (human Claudin18.2) + 150 nM antibody + human TNFR2-His, anti-His FITC detection
Protocol: Human TNFR2 protein (SINO, CAT: 10417-H08H) was sequentially added into 96-well plate with 100 μL/well, and after mixing, the 96-well plate was incubated at 4° C. for 1 h. Pre-cooled dilution was added and washed once, centrifuged (3000 rpm, 3 min), and the supernatant was discarded, and the cells were harvested. Fluorescent secondary antibody Anti-6X-his tag antibody (FITC) (manufacturer: abcam, Cat. No.: ab1206, Lot No.: GR3420599-3) was taken and diluted at the used concentration of 1:500. 100 μL of dilution was added to the blank control group, and 100 μL of fluorescent secondary antibody dilution was added to the rest of the sample groups respectively. After incubation for 0.5 h at room temperature and 4° C. protected from light, PBS was added to wash and centrifuged (3000 rpm, 3 min) twice. After discarding the supernatant, 80 μL of the dilution was added and resuspended.

Binder	E1 Mean FITC-A
TC-E1 (bispecific antibody, human IgG1, kappa) light: DIVMTQSPSSLAVSLGERATINCKSSQSLLQSGNQKNYLTWYQQKPGQPPKLLIYWASTRESGVPDRFSGSGSGTDFTLTISSLQAEDVAVYYCQNNYIFPLTFGQGTKLEIKRTVAAPSVFIFPPSDEQLKSGTASVVCLLNNFYPREAKVQWKVDNALQSGNSQESVTEQDSKDSTYSLSSTLTLSKADYEKHKVYACEVTHQGLSSPVTKSFNRGECGGGGSGGGGSEVQLVQSGAEVKKPGATVKISCKVSGYSITDYLLHWVQQAPGKCLEWMGWIDPEDAKTKYGQKFQSRVTITADTSTDTAYMELSSLRSEDTAVYYCAANSGTGTMDAWGQGTLVTVSSGGGGSGGGGSGGGGSDIVMTQSPATLSVSPGERATLSCKASQNVGSNVDWYQQKPGQSPRVLIYKASIRYTGIPARFSGSGSGTEFTLTISILQSEDFAVYFCMQSKSYPITFGCGTKLEIK heavy: QVQLVQSGAEVKKPGASVKVSCKASGYTFTSYWMHWVRQAPGQRLEWMGSIESNSAGTKYDERFKTRVTITRDTSASTAYMELSSLRSEDTAVYYCARFYYGNSFAYWGQGTLVTVSS[not shown - human IgG1 constant region]	275000
TC-F1 (bispecific antibody, human IgG1, kappa) light: EVQLVQSGAEVKKPGATVKISCKVSGYSITDYLLHWVQQAPGKCLEWMGWIDPEDAKTKYGQKFQSRVTITADTSTDTAYMELSSLRSEDTAVYYCAANSGTGTMDAWGQGTLVTVSSGGGGSGGGGSGGGGSDIVMTQSPATLSVSPGERATLSCKASQNVGSNVDWYQQKPGQSPRVLIYKASIRYTGIPARFSGSGSGTEFTLTISILQSEDFAVYFCMQSKSYPITFGCGTKLEIKGGGGSGGGGSGGGGSDIVMTQSPSSLAVSLGERATINCKSSQSLLQSGNQKNYLTWYQQKPGQPPKLLIYWASTRESGVPDRFSGSGSGTDFTLTISSLQAEDVAVYYCQNNYIFPLTFGQGTKLEIKRTVAAPSVFIFPPSDEQLKSGTASVVCLLNNFYPREAKVQWKVDNALQSGNSQESVTEQDSKDSTYSLSSTLTLSKADYEKHKVYACEVTHQGLSSPVTKSFNRGEC heavy: QVQLVQSGAEVKKPGASVKVSCKASGYTFTSYWMHWVRQAPGQRLEWMGSIESNSAGTKYDERFKTRVTITRDTSASTAYMELSSLRSEDTAVYYCARFYYGNSFAYWGQGTLVTVSS[not shown - human IgG1 constant region]	141000
TC-B1 (bispecific antibody, human IgG1, kappa) light: DIVMTQSPSSLAVSLGERATINCKSSQSLLQSGNQKNYLTWYQQKPGQPPKLLIYWASTRESGVPDRFSGSGSGTDFTLTISSLQAEDVAVYYCQNNYIFPLTFGQGTKLEIKRTVAAPSVFIFPPSDEQLKSGTASVVCLLNNFYPREAKVQWKVDNALQSGNSQESVTEQDSKDSTYSLSSTLTLSKADYEKHKVYACEVTHQGLSSPVTKSFNRGEC heavy: EVQLVQSGAEVKKPGATVKISCKVSGYSITDYLLHWVQQAPGKCLEWMGWIDPEDAKTKYGQKFQSRVTITADTSTDTAYMELSSLRSEDTAVYYCAANSGTGTMDAWGQGTLVTVSSGGGGSGGGGSGGGGSDIVMTQSPATLSVSPGERATLSCKASQNVGSNVDWYQQKPGQSPRVLIYKASIRYTGIPARFSGSGSGTEFTLTISILQSEDFAVYFCMQSKSYPITFGCGTKLEIKGGGGSGGGGSGGGGSQVQLVQSGAEVKKPGASVKVSCKASGYTFTSYWMHWVRQAPGQRLEWMGSIESNSAGTKYDERFKTRVTITRDTSASTAYMELSSLRSEDTAVYYCARFYYGNSFAYWGQGTLVTVSS[not shown - human IgG1 constant region]	55200
